According to the supplement of paper PMC10338343:
± gives the standard deviation. In all, about 5,500 sequences were measured (“pre-steady-state target cleavage rate”: median about 0.1, highest 2% from about 0.64 on). This is a selection; strong and weak results do not stand in their true shares.

tested on: MIWI (PIWIL1) piRISC loaded with piRNA #2 (30 nt); assay: pre-steady-state target cleavage rate (min^-1); MIWI and MILI are mouse PIWI proteins and EfPiwi is from a freshwater sponge; tags in brackets are library labels; higher = faster piRNA-guided slicing of the target; settings: guide: piRNA #2 5'p-UUAGGUAACCCAGUAGAUCCAGAGGAAUUC; auxiliary factor: 500 nM mouse GTSF1
Protocol: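 Cleave-'n-Seq: a library of target RNAs (target site embedded in constant flanks, ACAGCATTCCGCGTTAGTGATATCCG... 5' flank; DNA-blocked outside the site) at 0.1 nM was incubated with 1 nM active mouse MILI or MIWI piRISC (synthetic 5'-monophosphorylated piRNA guide) with or without 500 nM mouse GTSF1 at 33 °C for 1 min to 16 h. Uncleaved targets were sequenced and normalised to non-target controls, and the pooled three trials were fitted to a burst-and-steady-state model to give the pre-steady-state cleavage rate (min^-1; k3 is constrained to at most 1e-4). Sequence is the target site only; target names encode pairing extent (gX:gY) and contiguous / 1-mismatch / 2-mismatch / bulge geometry. Fits with R² ≤ 0 are excluded.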

Sequence	pre-steady-state target cleavage rate
CUUUUCCUCUGGAUCUUCAGGGUUACCUAA	0.134 ± 0.014
CAAUUCCUCUGCAUCUACUGCGUUACCUAA	0.666 ± 0.058
CUUAUCCUCUGGAUCAACUGGGUUUCCUAA	0.162 ± 0.042
CUUAAGGAGAGGAUCUACUGGGUCACCUAA	0.0212 ± 0.0054
CAAUUCCUCUGGAUCUACUGGGUUACGUUA	0.44 ± 0.076
CUUAAGCGCUGGAUCUACUGGGUUACCUAA	0.162 ± 0.014
CUUAACACUCUGGAUCUACUGGGUUACCUAA	0.155 ± 0.022
GAUAACCUCUGGAUCUACUGGGUUACCUAA	0.123 ± 0.024
GAAUUCCUCUGGAUCUACUGGGUUACCUGAA	0.735 ± 0.26
CUUAAGGAGAGGAUCUACUGCGUUACGUAA	0.0136 ± 0.0065
CUUAACCUCUGGAUCUACUGGGUUACUUAA	0.45 ± 0.035
CAAUUCCUCUGGAUCUACUGGGUUACCAUA	0.518 ± 0.076
GAAUUCCUCUGGAUCUUCUGGGUUACGUAA	0.547 ± 0.042
CAAUUGCUCUGGAACUACUGGGUUACCUAA	0.228 ± 0.029
CAUUUCGUCUGGAUCUACUGGGUUACCUAA	0.416 ± 0.058
CUUAUCCUCUGGAUCUACUGGGUUAACUAA	0.407 ± 0.071
CUUAAGCUCAGGAUCUACUGGGAUACCUAA	0.137 ± 0.024
CAAUUCCUCUGGAUCUACUGGGUUAUCUAA	0.634 ± 0.1
CUUAAGGUCUGGUUCUUCUGGGUUACCUAA	0.0644 ± 0.021
CUUUUCCUCUGCUACUACUGGGUUACCUAA	0.305 ± 0.033
CUUAAGCUCUGGAACUACUGGGUUACCUUA	0.12 ± 0.017
CUUAAGGAGACCAUCUACUGGGUUACAUAA	0.00756 ± 0.0026
CUUAACCUCUGGAUCUACUGGGUCUACCUAA	0.252 ± 0.027
CUAUUCCUCUGGAUCUACUGGGUUUCCAAA	0.149 ± 0.043

Sequence	pre-steady-state target cleavage rate
CAAUUCCUCUGGAUCUUCUCGGUUACCUAA	0.0735 ± 0.014
CUUAACCCUCUGGAUCUACUGGGUUACCUAA	0.256 ± 0.032
CUUAAGGAGUGGUUCUACUGGGUUACCUUA	0.0165 ± 0.004
CUUAAGCUCUGGAUCUUCUGGGUUACCUUA	0.0656 ± 0.014
CAUUUCCUCUGGAUCAACUGGGUUACCUAA	0.494 ± 0.056
CAAUUCCUGUGGAUCUACUGCGUUACCUAA	0.416 ± 0.059
CUAUUCCUCUGCAUCUAGUGGGUUACCUAA	0.179 ± 0.019
CUUAAGCUCUGCAUCUACUGGGUUACGUAA	0.226 ± 0.021
CUUUUCCUCUGCAUCAACUGGGUUACCUAA	0.374 ± 0.03
CUUUUCCUCUGGAUCUUCUGCGUUACCUAA	0.253 ± 0.033
CUUAUCCUCUGGAUCUACUGGGUCUACCUAA	0.424 ± 0.037
CUUUUCCUCUGGAUCCUACUGGGUUACCUAA	0.149 ± 0.025
CUAUUCCUCUGGAUCUACUGGGUUACCUUA	0.333 ± 0.056
GAAUUCCUCUGGAUCUACUGGGUUACCUAU [g2:g30:cont:t1U]	0.262 ± 0.042
CUUAAGGUCACGAUCUACUGGGUUACCUAA	0.0165 ± 0.0034
GUUAUCCUCUGGAUCUACUGGGUUACCUAA	0.0688 ± 0.031
CAAUUCCACUGGAUCUAGUGGGUUACCUAA	0.193 ± 0.03
CUUAAGCUCUGCUACUACUGGGUUACCUAA	0.0735 ± 0.013
CUUAAGCUCUGGAUCUCCUGGGUUACCUAA	0.0368 ± 0.01
GAAUUCCUCUCGAUGUACUGGGUUACCUAA	0.645 ± 0.052
CUUAAGGUCUGGAAGUACUGGGUUACCUAA	0.2 ± 0.042
CUUAAGGACUGGGAUCUACUGGGUUACCUAA	0.0607 ± 0.035
CUAUUCCUCUGGAUCUACUGCGUUACCAAA	0.344 ± 0.07
CUUAAGGACUGGAUCUACUGGGUUACCUAAA	0.183 ± 0.065

Sequence	pre-steady-state target cleavage rate
CUUUUCCUCUGCGAUCUACUGGGUUACCUAA	0.474 ± 0.049
CUUUUCCUCUGGAUCUGCUGGGUUACCUAA	0.451 ± 0.054
GAAUUCCUCUGGAUCUACGUGGGUUACCUAA	0.00545 ± 0.0038
CUUUUCCUCUGGUAUCUACUGGGUUACCUAA	0.372 ± 0.057
CUUAAGCUCAGGAUCUACUGCGUUACCUAA	0.24 ± 0.033
CUUUACCUCUGGAUCUACUGGGUAACCUAA	0.115 ± 0.017
CAAUUCCAGUGGAUCUACUGGGUUACCUAA	0.495 ± 0.056
GACUUCCUCUGGAUCUACUGGGUUACCUAA	0.0458 ± 0.022
CUUUUCCUCUGGAUCUACUGGCUUACCUAA	0.108 ± 0.015
CUUAUCCUCUGGUUCUACUGGGUUAGCUAA	0.252 ± 0.049
CUUAACCUCUGGAUGUACUGGGUUACCUAA	0.408 ± 0.03
GAAUACCUCUCGAUCUACUGGGUUACCUAA	0.536 ± 0.061
CUUAAGGAGAGGAUCUACUGGGUUUCCUAA	0.00336 ± 0.0033
CUUAAGGUCUGGAUCUACUGGGUUACCAUAA	0.278 ± 0.043
CUUAAGCUCUGGAUCUACUGCGUUACCUAA	0.26 ± 0.035
CAAUUCCUCUGGAUCUACUGCGUUACCUUA	0.402 ± 0.069
CUUAUCCUCUGGAUCAACUGGGUUAGCUAA	0.18 ± 0.041
CUUAAGGAGACCUAGUAGUGCGUUACCUAA	0.00262 ± 0.0018
CUAUUCCUCUGGAUCCACUGGGUUACCUAA	0.241 ± 0.04
CAAUUCCUCUGCAUCUACUGGGUAACCUAA	0.256 ± 0.031
CUUAAGGACUGGAUCUACUGCGUUACCUAA	0.132 ± 0.062
CUUAAGGAGUGGAGCUACUGGGUUACCUAA	0.0372 ± 0.019
CUUAACCUCAGGAUCUACUGGGUUUCCUAA	0.249 ± 0.05
GACAUUCCUCUGGAUCUACUGGGUUACCUAA	0.108 ± 0.032

Sequence	pre-steady-state target cleavage rate
CUUAUGGUCUGGAUCUACUGGGUUACCUAA	0.285 ± 0.027
CUUAUCCUCUGGUUCUACUGGGUUACCAAA	0.266 ± 0.056
CUUAAGCUCUGAGAUCUACUGGGUUACCUAA	0.231 ± 0.022
CUUAAGGAGUGGAUCUACUGCGUUAGCUAA	0.00745 ± 0.0066
CUUAAGCUCUGGAUCUACUGUGUUACCUAA	0.45 ± 0.051
CAAUUCCUCAGGAUCUACUGGGUUACGUAA	0.594 ± 0.058
CAAUUGCACUGGAUCUACUGGGUUACCUAA	0.388 ± 0.056
CUUAAGGUGUGGAUCAACUGGGUUACCUAA	0.0298 ± 0.0095
CUUAACCUCUGGACUCUACUGGGUUACCUAA	0.0961 ± 0.011
CUUAUCCACUGGUUCUACUGGGUUACCUAA	0.367 ± 0.025
CUUUUCCUUCUGGAUCUACUGGGUUACCUAA	0.455 ± 0.051
CAAUUCCUGUGGAUCUUCUGGGUUACCUAA	0.309 ± 0.065
CAAUUCCUCUGUAUCUACUGGGUUACCUAA	0.479 ± 0.058
GAAUUCGUCUGGAUCUACUGGGUUACCAAA	0.327 ± 0.056
CUUAUCCACUGGAUCUACUGGGUUACCUUA	0.383 ± 0.055
CUAUUGCUCUGGAUCUACUGGGUUUCCUAA	0.15 ± 0.028
CUUAAGGACUGGAUCUACUGGGUUAGCCUAA	0.0629 ± 0.041
CUUUACCUCAGGAUCUACUGGGUUACCUAA	0.443 ± 0.046
CUUAAGGAGAGGAUCUACUGGGUUACUUAA	0.0208 ± 0.0083
CAAAUCCACUGGAUCUACUGGGUUACCUAA	0.493 ± 0.052
CUUUUCCUCUGGACCUACUGGGUUACCUAA	0.157 ± 0.02
CUAUUCCUCUGGAUCUACUGGCUUACCUAA	0.105 ± 0.017
CUAUUCCUCUGGAUGUACUCGGUUACCUAA	0.113 ± 0.022
CUUUUCCACUGGAUCUACUGGGUAACCUAA	0.266 ± 0.043

Sequence	pre-steady-state target cleavage rate
CUUAAGGAGUGGAUCUACACCGUUACCUAA	0.0034 ± 0.0022
CUUAAGGUCUGGAUCUUCUCGGUUACCUAA	0.0252 ± 0.01
CUAUUCCUCUGGUUCUACUGGGUUAGCUAA	0.309 ± 0.046
CUUAAGGAGUGGAUGUACUGGGUUACGUAA	0.129 ± 0.043
CAAUUCCUCAGGAUGUACUGGGUUACCUAA	0.538 ± 0.059
CUUUUCCUGUGGAUCAACUGGGUUACCUAA	0.337 ± 0.029
CUUAAGGUCUGGAUCUACUGGGUUAACUAA	0.225 ± 0.033
CUUAAGCGUCUGGAUCUACUGGGUUACCUAA	0.266 ± 0.023
CAAUUCCUCUGCAUCAACUGGGUUACCUAA	0.484 ± 0.033
CUUAAGGAGUGGAUCUAGUGGGUUACCUAA	0.014 ± 0.0048
CUUAAGCUCUGGAUCUACCGGGUUACCUAA	0.0507 ± 0.0083
CUUAACCUCUGGAUCUACUGGGUUAACCUAA	0.245 ± 0.036
CUAUUCCUCUGGAUCUACUGGGUUAGGUAA	0.0894 ± 0.024
CUUAAGCUCUGGAUCUAGUGGGUUAGCUAA	0.0279 ± 0.0054
CUUAACCUCUGGAUCUACUGGGUUACCUA	0.183 ± 0.025
CUUAACCUCUGGAAGUACUGGGUUACCUAA	0.465 ± 0.031
CUUAAGCUCUGGAUCUACUCGGUUAGCUAA	0.0319 ± 0.015
CAAUUCCUCUGGAUCUACUGGGUUACACUAA	0.591 ± 0.072
CUUAUGCUCUGGAUCUUCUGGGUUACCUAA	0.104 ± 0.012
CUUUUCCUCUGGAUCUACUGGGUAUACCUAA	0.447 ± 0.051
GAUUUCCUCUGGAUCUACUCGGUUACCUAA	0.0567 ± 0.017
CUAUUCCUCUGGAUCUUGUGGGUUACCUAA	0.00448 ± 0.0026
CUUAAGGUCUGGAUGUACAGGGUUACCUAA	0.0551 ± 0.013
CUUAUCCUCUGGAUCUACUGGGUUACUCUAA	0.262 ± 0.045

Sequence	pre-steady-state target cleavage rate
GUAUUCCUCUGGAUCUUCUGGGUUACCUAA	0.109 ± 0.035
GAAAUCCUCUGGAUCUACUGGGUUACCUUA	0.199 ± 0.043
GAAUUCCUCUGGACCUACUGGGUUACCUAA	0.139 ± 0.029
CUUAUCCUCUAGGAUCUACUGGGUUACCUAA	0.235 ± 0.029
CUUAACCUCUGGUUCUACUGGGUUUCCUAA	0.322 ± 0.1
CUUAACCUCUGGUUCUACUGGGUAACCUAA	0.0813 ± 0.022
GAAUUCCUCUGGAUCUACUGGGUUACGUAA	0.625 ± 0.057
CUUAACCUCUGGAUCUACUGGCUUACCUAA	0.0719 ± 0.0085
CUUAACGUCUGGAUCUACUGGGUUACCUUA	0.208 ± 0.027
CUAUUGCUCUGGAUCUACUCGGUUACCUAA	0.0414 ± 0.011
CUUAACCUCUGGAUCUAUGGGUUACCUAA	0.0113 ± 0.0029
CUUAAGCUCUCGAUCUACUGGGUUUCCUAA	0.171 ± 0.025
CUUUUCCUCUGGAUCUACUCGGUUACGUAA	0.0907 ± 0.029
GAAUUCCACUGGAUCUACUGGGUUACCUUA	0.508 ± 0.064
CUUAACCUCUGGUUCUAGUGGGUUACCUAA	0.162 ± 0.019
CUUAACCUCUGGAACUACUGGGAUACCUAA	0.0426 ± 0.0073
CAUUUCCUCUGGAUCUACUGGGUUACGUAA	0.622 ± 0.062
CUUAAGGUCUGGAUCUACUGGGAUACGUAA	0.0894 ± 0.017
CAAUUCCAUCUGGAUCUACUGGGUUACCUAA	0.568 ± 0.064
CUUUUCCUCUGGAUGUACUGGGUUACCAAA	0.316 ± 0.037
CUUAACCUGUGGAUCUACUGGGUUACCAAA	0.085 ± 0.011
CUUAAGCACUCGAUCUACUGGGUUACCUAA	0.138 ± 0.021
CUUAAGGUCUGGUUCUACUCGGUUACCUAA	0.0235 ± 0.022
GAAUUCCUGUGGAUCUACUGGGAUACCUAA	0.174 ± 0.029
